Measurements as given in PubChem BioAssay AID1240 (Sanford-Burnham Center for Chemical Genomics, 2008).
Screen size: about 50,000 compounds; about 800 (1.6%) showed an effect of 50% or more. This is one part of the list.

target: Bcl-2-like protein 10 (Homo sapiens) (UniProt Q9HD36); experiment: TR3 peptide-Bcl-B binding displacers, biochemical primary FP assay, phenotype converters (AID 1240); conditions: GST-Bcl-B / FITC-TR3 peptide fluorescence polarization; stronger effect = higher value; compound at 3.75 mg/L;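 further: 0% = Bcl-B with tracer peptide and DMSO and 100% = tracer peptide lacking Bcl-B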
Chain of UniProt Q9HD36 (Q9HD36 whole entry, looked up): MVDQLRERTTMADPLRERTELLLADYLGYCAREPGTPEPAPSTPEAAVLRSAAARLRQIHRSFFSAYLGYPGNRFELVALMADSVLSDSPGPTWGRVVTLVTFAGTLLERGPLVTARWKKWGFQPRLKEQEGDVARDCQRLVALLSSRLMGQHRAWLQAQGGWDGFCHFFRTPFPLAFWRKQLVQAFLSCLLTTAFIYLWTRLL

SMILES | displacement
COc1ccc(/C=C2/SC(=S)N(Cc3ccccc3)C2=O)cc1OC | 16.1%
Cc1cc(/C=C2\SC(=S)NC2=O)c(C)n1C | -9.3%
NC1=NC(=O)/C(=C/c2cccc(OCc3cccc4ccccc34)c2)S1 | 8.1%
Cc1c(Cl)cccc1-c1ccc(C(=O)Nc2ccc(Cl)cc2)o1 | -0.6%
CCOc1ccc(/C=C2/SC(NC(C)=O)=NC2=O)cc1 | 132%
COc1ccc2ncn(-c3ccccc3)c2c1 | -6.2%
O=c1oc2cc(OCc3ccc(F)cc3)ccc2cc1-c1nc2ccccc2s1 | 52.5%
O=c1ccc([N+](=O)[O-])ccc1NCc1ccccc1 | -6.1%
CCOC(=O)c1c(NC(=O)c2ccc([N+](=O)[O-])cc2)sc2c1CCCCCC2 | -4.7%
S=C(Cc1ccccc1)N1CCOCC1 | 6.4%
CC(C)(C)SCCN=C1NS(=O)(=O)c2ccccc21 | 5.3%
COc1ccc(C(=O)Nc2nc3ccc(C)cc3s2)cc1Br | 14.6%
c1ccc(-c2ccc(-c3nc(-c4ccncc4)no3)cc2)cc1 | 0.3%
CN(C)CCNC(=O)c1ccc(F)cc1 | 13.8%
Cc1c(Br)c(C(F)(F)F)nn1CC(=O)N(C)c1ccccc1 | 9.2%
CCN1C(=O)CSC1=Nc1ccc(C(=O)O)cc1 | -0.4%
Cc1cccc(OCC(=O)NC(C)c2ccccc2)c1 (stereo not drawn) | -5.2%
Cc1cccc(C(=O)N(C(C)C)C(C)C)c1 | -8.4%
c1ccc(-c2nnc(-c3cccc(-c4nnc(-c5ccccc5)o4)c3)o2)cc1 | -1.2%
COc1ccc(C(=O)Nc2ccccc2C(=O)N2CCOCC2)cc1 | 5.5%
N#Cc1cnc(Nc2ccc(Cl)cc2)c(C#N)c1Nc1ccccc1 | -4.1%
Cc1ccc2oc(-c3cccc(NS(=O)(=O)c4ccccc4)c3C)nc2c1 | -6.4%
CCCCOc1ccc(Cc2c(O)nc(N)[nH]c2=O)cc1 | 0.1%
COc1ccc(N2C(=O)CC(Sc3nnc(N)s3)C2=O)cc1 (stereo not drawn) | 8.2%
CCCc1cc2c(-c3ccccc3)cc(=O)oc2cc1OCC | 6.2%

SMILES | displacement
COc1cccc(-c2nnc(NC(=O)/C=C/c3ccccc3)s2)c1 | 51.4%
COc1ccccc1-c1coc2cc(OC(=O)c3ccc(Cl)cc3)ccc2c1=O | -2%
COc1cc(/C=N/n2c(C)nnc2-n2nc(C)cc2C)cc(I)c1O | 3.2%
COc1cc(F)ccc1S(=O)(=O)N1CCC(C)CC1 | -0.3%
COc1ccc(N(CC(=O)NCC2CCCO2)S(=O)(=O)c2ccccc2)cc1 (stereo not drawn) | -17.9%
CC1(C)CC(=O)c2sc(NC(=O)CSc3nc4ccccc4[nH]3)nc2C1 | -2.1%
CC(C)(C)c1cc(C2Nc3cccc4cccc(c34)N2)cc(C(C)(C)C)c1O | 9.6%
COC(=O)CCN1C(=O)/C(=C\c2cc(Br)c(O)c(OC)c2)SC1=S | 53.8%
Cn1cccc1CN1CCN(S(C)(=O)=O)CC1 | 15.3%
O=C(COc1ccc(Cl)cc1Br)NNC(=O)c1cccs1 | -10.7%
Cc1ccc2oc(-c3cccc(NC(=O)/C=C/c4ccc(-c5ccccc5[N+](=O)[O-])o4)c3C)nc2c1 | 9.6%
Cc1ccc(-c2csc(-c3cc4ccccc4oc3=O)n2)cc1 | 154%
C[n+]1ccccc1/C=C\c1ccccc1O | -3.1%
CCC1=NN(C(=O)c2ccncc2)C(O)(c2ccc(Br)cc2)C1 (stereo not drawn) | 10.2%
COc1ccc(C)cc1NC(=O)COc1ccc(F)cc1 | 6.7%
N#C/C(=C/c1cccc2ccccc12)C(=O)Nc1ccc(O)cc1 | 0.2%
C=CCc1cc(/C=C2/C(=O)NC(=O)N(c3ccc(OC)cc3)C2=O)cc(OC)c1O | -1%
COc1ccccc1C(=O)CC(=O)Nc1ccccc1 | -0.5%
Cc1ccc(C)n1-c1ccc(Cl)c(C(=O)NN)c1 | -58.5%
COC(=O)C1=NNC2C(=O)N(c3ccccc3C)C(=O)C12 (stereo not drawn) | -4.3%
Cc1cc(C)cc(C(=O)N2CCN=C2c2ccccc2)c1 | -7.8%
CCOC(=O)c1cnn2c(C)cc(-c3ccc(F)cc3)nc12 | -1.8%
CCOC(=O)C(CC)Oc1ccc2c(C)cc(=O)oc2c1 (stereo not drawn) | -11.3%
Cc1ccc(CN2C(=O)C(C)(C)N(C(=O)c3cccc([N+](=O)[O-])c3)c3ccccc32)c(C)c1 | 0.4%
O=C(Nc1ccc([N+](=O)[O-])cn1)C1c2ccccc2Oc2ccccc21 | 7.1%

SMILES | displacement
Cc1ccccc1C(=O)Nc1cccc(NC(=O)c2cccc(Cl)c2)c1 | 10.5%
c1ccc(Oc2cccc(CN3CCN(Cc4ccncc4)CC3)c2)cc1 | 0.4%
CCOC(=O)c1ccccc1NC(=O)c1sc(NC(=O)C2CC2)c(C(=O)OCC)c1C | -2.5%
CCN(CC)c1nc(-c2ccccc2)c2cc(Cl)ccc2n1 | -1.2%
Cc1ccc2c(c1)-c1c(ssc1=S)C(C)(C)N2C(=O)c1ccco1 | -6%
O=C1/C(=C/c2c3ccccc3nc3ccccc23)Sc2ccccc21 | -0.5%
COC(=O)c1c(NC(=O)c2ccc(OC)c(OC)c2)sc2c1CCC(C)C2 (stereo not drawn) | 8.9%
O=C(Nc1ccc(I)cc1Cl)c1cccc(Cl)c1 | 11.6%
O=C(Nc1ccccc1)Nc1nnc(-c2ccccc2)s1 | 6.4%
COc1ccc(C(=O)/C=C/C=C(Cl)Cl)cc1 | 20.4%
CC(=O)N(CCN(C(C)=O)c1ccccc1C)c1ccccc1C | -0.1%
CCN(CC)CC#CC(C)(C)OC(C)=O | -12.3%
O=C(Nc1ccc(-c2nc3ccccc3[nH]2)cc1)c1cccs1 | -7.9%
CC(C)c1ccc(NC2=NS(=O)(=O)c3cc([N+](=O)[O-])ccc32)cc1 | -8.3%
COc1ccccc1CNC(=O)C1CC(=O)N(c2ccc(C)cc2)C1 (stereo not drawn) | 5.1%
COc1ccccc1NC(=O)C1=C(C)NC(=S)NC1c1ccccc1Br (stereo not drawn) | -20.5%
CC(=O)c1c(C)[nH]n(-c2ccccc2)c1=O | 5.2%
COc1ccc(Br)cc1C(=O)Nc1nc(C)cs1 | -8.9%
COc1ccc(C2C(C(C)=O)=C(Nc3ccc(Br)cc3)CC(C)(O)C2C(C)=O)cc1 (stereo not drawn) | 90.9%
CCOC(=O)C1=C(C)N=c2s/c(=C\c3ccc(N(C)C)cc3)c(=O)n2C1c1ccc(OC)cc1 (stereo not drawn) | 4.8%
Cc1cc(C)c(C#N)c(SCC(=O)c2ccc(O)c(O)c2)n1 | 5.8%
COc1cc(Br)c(Nc2nc(-c3cccnc3)cs2)c(Br)c1 | -8.4%
O=C1c2ccc(-c3nc4ccccc4c(=O)o3)cc2C(=O)N1c1nccs1 | 8.4%
